Laboratory results taken from the supplement of paper PMC8748497.
The list shows a part of the results.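 The calls were made as follows: active = fold change of at least 2 over DMSO control; inactive = below 2-fold.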 Many values rest on one well or one pass, so single values are uncertain.

The molecules below were run on HEK293 ARE/NRF2-luciferase reporter (assay: ARE/NRF2 luciferase reporter activity, fold change over DMSO control; higher = stronger NRF2/ARE reporter activation). Settings: 10 µM; 24 h.
With CC(=O)O[C@]1(C(C)=O)CC[C@H]2[C@@H]3C[C@H](C)C4=CC(=O)CC[C@]4(C)[C@H]3CC[C@@]21C the “ARE/NRF2 luciferase reporter activity” value was inactive: 1.12. For CC(=O)Nc1ccccc1, the “ARE/NRF2 luciferase reporter activity” value was inactive: 0.971. In the case of CCN(CC)CCc1nc(-c2ccccc2)no1, the “ARE/NRF2 luciferase reporter activity” value is reported as inactive: 0.0244. With CCN(CC)C(=O)c1cccnc1 the “ARE/NRF2 luciferase reporter activity” value was inactive: 1.15. O=C1CCC[C@@H]2[C@H]3CCC[N+]4([O-])CCC[C@@H](CN12)[C@@H]34 (some centres undefined) was tested, and the “ARE/NRF2 luciferase reporter activity” value was inactive: 0.871. With CN(C)CC/C=C1/c2ccccc2Sc2ccc(Cl)cc21 the “ARE/NRF2 luciferase reporter activity” value was inactive: 0.639. With CN(C)[C@@H]1C(=O)C(C(N)=O)=C(O)[C@@]2(O)C(=O)C3=C(O)c4c(O)ccc(Cl)c4[C@@H](O)[C@H]3C[C@@H]12 the “ARE/NRF2 luciferase reporter activity” value was inactive: 0.66. CCN(CC)CCOc1ccc(C(=C(Cl)c2ccccc2)c2ccccc2)cc1 was tested, and the “ARE/NRF2 luciferase reporter activity” value was inactive: 0.193. With COc1ccc([C@@H]2CC(=O)c3c(O)cc(O[C@@H]4O[C@H](CO[C@@H]5O[C@@H](C)[C@H](O)[C@@H](O)[C@H]5O)[C@@H](O)[C@H](O)[C@H]4O)cc3O2)cc1O the “ARE/NRF2 luciferase reporter activity” value was inactive: 0.824. In the case of Nc1c(Br)cc(Br)cc1CN[C@H]1CC[C@H](O)CC1, the “ARE/NRF2 luciferase reporter activity” value is reported as inactive: 0.751. In the case of OC[C@H]1O[C@@](CO)(O[C@H]2O[C@H](CO)[C@@H](O)[C@H](O)[C@H]2O)[C@@H](O[C@H]2O[C@H](CO)[C@@H](O)[C@H](O)[C@H]2O)[C@@H]1O, the “ARE/NRF2 luciferase reporter activity” value is reported as inactive: 1.01. In the case of OCCOCCN1CCN(C2=Nc3ccccc3Sc3ccccc32)CC1, the “ARE/NRF2 luciferase reporter activity” value is reported as inactive: 1.22. For COc1ccc(C(C)=O)c(O)c1, the “ARE/NRF2 luciferase reporter activity” value was inactive: 0.848. CN1C(C(=O)Nc2ccccn2)=C(O)c2ccccc2S1(=O)=O was tested, and the “ARE/NRF2 luciferase reporter activity” value was inactive: 0.921. Cc1c(Cl)cccc1Nc1ncccc1C(=O)O was tested, and the “ARE/NRF2 luciferase reporter activity” value was inactive: 1.32. For CC(=O)OCC1=C(C(=O)O)N2C(=O)[C@@H](NC(=O)CSc3ccncc3)[C@H]2SC1, the “ARE/NRF2 luciferase reporter activity” value was inactive: 0.936. For Cc1ncc([N+](=O)[O-])n1CC(O)CCl (centres undefined), the “ARE/NRF2 luciferase reporter activity” value was inactive: 1.01. With C=C1c2cccc(O)c2C(O)=C2C(=O)[C@]3(O)C(O)=C(C(N)=O)C(=O)[C@@H](N(C)C)[C@@H]3[C@@H](O)[C@H]12 the “ARE/NRF2 luciferase reporter activity” value was inactive: 1.02. In the case of CC[C@H]1OC(=O)C[C@@H](O)[C@H](C)[C@@H](O[C@@H]2O[C@H](C)[C@@H](O)[C@H](N(C)C)[C@H]2O)[C@@H](CCN2C[C@H](C)C[C@H](C)C2)C[C@@H](C)C(=O)/C=C/C(C)=C/[C@@H]1CO[C@@H]1O[C@H](C)[C@@H](O)[C@@H](OC)[C@H]1OC, the “ARE/NRF2 luciferase reporter activity” value is reported as inactive: 1.22. In the case of COCCOC(=O)C1=C(C)NC(C)=C(C(=O)OC(C)C)C1c1cccc([N+](=O)[O-])c1 (centres undefined), the “ARE/NRF2 luciferase reporter activity” value is reported as inactive: 0.954. CCCOc1ccc2[nH]c(NC(=O)OC)nc2c1 was tested, and the “ARE/NRF2 luciferase reporter activity” value was inactive: 1.44. For CC[C@H](C)[C@H](N)C1=N[C@H](C(=O)N[C@@H](CC(C)C)C(=O)N[C@H](CCC(=O)O)C(=O)N[C@H](C(=O)N[C@H]2CCCCNC(=O)[C@H](CC(N)=O)NC(=O)[C@@H](CC(=O)O)NC(=O)[C@H](Cc3cnc[nH]3)NC(=O)[C@@H](Cc3ccccc3)NC(=O)[C@H]([C@@H](C)CC)NC(=O)[C@@H](CCCN)NC2=O)[C@@H](C)CC)CS1, the “ARE/NRF2 luciferase reporter activity” value was inactive: 0.921. In the case of COc1cc(C(=O)N2CCOCC2)cc(OC)c1OC, the “ARE/NRF2 luciferase reporter activity” value is reported as inactive: 0.96. C=CC(C1=CC(=O)C(OC)=CC1=O)c1ccc(OC)cc1 (centres undefined) was tested, and the “ARE/NRF2 luciferase reporter activity” value was active: 44.9. In the case of CN1CCCN=C1/C=C/c1cccc(O)c1, the “ARE/NRF2 luciferase reporter activity” value is reported as inactive: 1.07. With CCCCCCCCCCCCCCCCOc1nc2ccc(C)cc2c(=O)o1 the “ARE/NRF2 luciferase reporter activity” value was inactive: 0.905. CC12CC3CC(C)(C1)CC(N)(C3)C2 was tested, and the “ARE/NRF2 luciferase reporter activity” value was inactive: 0.824. O=C(O)c1cccnc1Nc1cccc(C(F)(F)F)c1 was tested, and the “ARE/NRF2 luciferase reporter activity” value was inactive: 1.3. For CN1CCN(c2c(F)cc3c(=O)c(C(=O)O)cn4c3c2OCN4C)CC1, the “ARE/NRF2 luciferase reporter activity” value was inactive: 0.653. For Cc1noc(NS(=O)(=O)c2ccc(N)cc2)c1C, the “ARE/NRF2 luciferase reporter activity” value was inactive: 0.791. For Clc1ccc(CCC(Cn2ccnc2)Sc2c(Cl)cccc2Cl)cc1 (centres undefined), the “ARE/NRF2 luciferase reporter activity” value was inactive: 0.277. For C=C(C)[C@H]1COc2cc3oc(=O)ccc3cc2O1, the “ARE/NRF2 luciferase reporter activity” value was active: 2.28. For COC(=O)/C(C)=C\CC12OC(C)(C)C3CC(C=C4C(=O)c5c(c(CCC(C)(C)Cl)c6c(c5OC)C5CC(C)(CCC5=C(C)C)O6)OC431)C2=O (centres undefined), the “ARE/NRF2 luciferase reporter activity” value was inactive: 0.0238. With Cc1ccccc1C(OCCN(C)C)c1ccccc1 (centres undefined) the “ARE/NRF2 luciferase reporter activity” value was inactive: 0.764. With O=C(O)c1ccccc1Nc1ccccc1 the “ARE/NRF2 luciferase reporter activity” value was inactive: 1.17. For C=CCc1ccccc1OCC(O)CNC(C)C (centres undefined), the “ARE/NRF2 luciferase reporter activity” value was inactive: 0.906. In the case of CCCCCCCCCCOc1cc2c(O)c(C(=O)OCC)cnc2cc1OCC, the “ARE/NRF2 luciferase reporter activity” value is reported as inactive: 1. CO/N=C(\C(=O)N[C@@H]1C(=O)N2C(C(=O)O)=C(CSC(=O)c3ccco3)CS[C@H]12)c1csc(N)n1 was tested, and the “ARE/NRF2 luciferase reporter activity” value was inactive: 1.03. In the case of CCC1(c2ccccc2)C(=O)NCNC1=O, the “ARE/NRF2 luciferase reporter activity” value is reported as inactive: 0.943.
